Test results published in a compilation of properties of binary mixtures (doi:10.1007/s10953-012-9875-7).
The densities may have been worked out from excess volumes.

Test: xn = mol fraction of the nth substance listed
Settings: 101 kPa

CCCC[n+]1ccn(C)c1.N#C[S-] + O
mass density [kg/m3]
Settings	298.15 K	308.15 K	318.15 K	328.15 K	338.15 K	348.15 K
x2 = 0	1069.8	1063.9	1058	–	1046.4	1040.7
x2 = 0.0998	1069.1	1063.2	1057.3	–	1045.6	1039.8
x2 = 0.2007	–	–	–	1050.5	1044.6	1038.8
x2 = 0.3169	–	1061	–	1049	–	1037.2
x2 = 0.4346	1065.3	1059.2	1053.1	1047	1040.9	1034.9
x2 = 0.5296	1063.3	1057.1	1050.8	1044.6	–	–
x2 = 0.6426	1059.5	1053.2	1046.8	–	1034	1027.6
x2 = 0.7201	1055.6	1049.2	–	–	1029.6	1023
x2 = 0.7949	1049.9	1043.4	1036.8	1030.2	–	1016.7
x2 = 0.8733	1040	1033.6	1027.1	1020.5	1013.6	1006.7
x2 = 0.9444	1024.3	1017.8	1011.9	1005.7	999.1	992.6

O + CCCC[n+]1ccc(C)cc1.N#C[S-]
x1 = 1
Settings	mass density [kg/m3]
328.15 K	985.7
338.15 K	980.3
348.15 K	974.8

CCCC[N+]1(C)CCCC1.N#C[S-] + O
mass density [kg/m3]
Settings	x2 = 0	x2 = 0.0853	x2 = 0.2203	x2 = 0.3555	x2 = 0.5252	x2 = 0.6634	x2 = 0.783	x2 = 0.8623	x2 = 0.9657
298.15 K	1024.8	1024.7	–	1024.7	–	1022.6	–	–	1004
308.15 K	1019.5	1019.4	1019.4	1019.2	–	–	1013.5	–	–
318.15 K	1014.2	1014.2	–	1013.8	1012.7	1010.8	1007.4	–	–
328.15 K	1009	–	1008.8	1008.3	1007.1	1004.9	–	996.8	987.8
338.15 K	–	1003.7	–	1002.9	1001.5	998.9	–	991.4	–
348.15 K	998.7	998.5	–	997.5	995.8	–	988.8	984.8	–

O + CCCC[n+]1ccn(C)c1.N#C[S-]
x1 = 1
Settings	mass density [kg/m3]
328.15 K	985.7
348.15 K	974.8

O + CCCC[N+]1(C)CCCCC1.N#C[S-]
x1 = 1
Settings	mass density [kg/m3]
328.15 K	985.7
338.15 K	980.3
348.15 K	974.8

CCCC[n+]1ccc(C)cc1.N#C[S-] + O
mass density [kg/m3]
Settings	298.15 K	308.15 K	318.15 K	328.15 K	338.15 K	348.15 K
x1 = 0.0076	1001.3	996.4	–	985.8	980.6	975.2
x2 = 0	1061.3	1055.6	–	1044.3	–	1033.1
x2 = 0.0564	–	1055.3	1049.6	1043.9	1038.3	1032.7
x2 = 0.1655	1060.4	1054.6	1048.8	1043.1	–	–
x2 = 0.278	1059.5	1053.6	1047.8	1042	1036.2	1030.4
x2 = 0.3797	1058.3	1052.4	1046.5	1040.6	–	1028.8
x2 = 0.4628	1057.1	1051.1	1045.1	1039.1	–	1027.1
x2 = 0.5669	1054.9	1048.8	1042.6	1036.4	–	–
x2 = 0.6364	1052.8	–	1040.3	1034	1027.7	1021.4
x2 = 0.6999	1050.2	1043.8	1037.4	1031	1024.4	1018.1
x2 = 0.7623	1046.7	1040.2	1033.7	1027.1	–	1013.8
x2 = 0.8333	1040.7	1034.1	1027.5	1020.8	1014	1007.1
x2 = 0.9028	1030.7	1024.4	1018	–	1004.6	997.6
x2 = 0.957	1016.5	1011.2	1005.5	–	992.1	–
x2 = 0.9714	–	–	–	–	–	981.7

CCCC[N+]1(C)CCCCC1.N#C[S-] + O
mass density [kg/m3]
Settings	x2 = 0	x2 = 0.1046	x2 = 0.2774	x2 = 0.3741	x2 = 0.5111	x2 = 0.6302	x2 = 0.7172	x2 = 0.8248	x2 = 0.9351
318.15 K	1019.5	1019.5	1019	–	1017.6	1015.9	1013.9	1009.2	999.2
328.15 K	1014.2	1014.1	–	–	1011.9	–	1007.8	1002.9	993.1
338.15 K	1009.1	1009	–	1007.6	1006.2	1004.1	1001.6	996.4	987.3
348.15 K	1004	1003.8	1003	1002.2	–	998.2	995.5	989.9	981.5

O + CCCC[N+]1(C)CCCC1.N#C[S-]
x1 = 1
Settings	mass density [kg/m3]
328.15 K	985.7
338.15 K	980.3
348.15 K	974.8
